# Measured values: the supplement of paper PMC7826260
# Some of the results follow. Each Rep nickase domain was tested in vitro on the same pool of single strands for 1 h at 37 °C with 3 µM enzyme; only the middle of the 90-letter strands is printed. Numbers give uncut DNA relative to the enzyme-free pool, as log2; more negative means more cut, near 0 not cut, and no call is made. Counts are relative to all reads; where an enzyme cuts many sequences, the uncut ones exceed 0.
# Key:
# Assay in all cases: uncleaved DNA left, log2 of reads against the no-enzyme library (log2 ratio); higher = less cleavage (more negative = more Rep cleavage of the k-mer); sequences stand for … in CTCGTCCG…ACCGGAGA
# [1] = tested on: T1, Rep nickase domain of Muscovy duck circovirus
# T1 sequence (residues 1-111, tag not shown): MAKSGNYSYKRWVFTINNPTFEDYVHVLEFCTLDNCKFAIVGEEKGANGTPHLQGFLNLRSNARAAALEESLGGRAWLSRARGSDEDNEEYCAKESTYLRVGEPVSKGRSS
# Experimental: (§1)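 A pool of 90-nt single-stranded DNAs with seven random bases just before the constant AC of the nick site (name = the seven bases) was cut by 3 µM recombinant His6-SUMO-tagged Rep nickase domain (300 nM DNA, 50 mM HEPES pH 8.0, 50 mM NaCl, 1 mM MnCl2, 1 h, 37 °C, three replicates). Uncut DNA was amplified and sequenced.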
# [2] = tested on: T2, Rep nickase domain of banana bunchy top virus
# T2 sequence (residues 1-94, tag not shown): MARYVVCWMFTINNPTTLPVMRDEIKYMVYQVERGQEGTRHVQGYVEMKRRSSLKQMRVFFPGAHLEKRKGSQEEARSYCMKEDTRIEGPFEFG
# Experimental: as §1
# [3] = tested on: T3, Rep nickase domain of cabbage leaf curl virus
# T3 sequence (residues 1-116, tag not shown): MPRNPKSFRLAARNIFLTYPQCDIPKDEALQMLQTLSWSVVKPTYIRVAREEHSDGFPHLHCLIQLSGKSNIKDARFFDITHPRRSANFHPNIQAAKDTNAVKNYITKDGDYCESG
# Experimental: as §1
# [4] = tested on: T4, Rep nickase domain of chickpea chlorotic dwarf virus
# T4 sequence (residues 1-124, tag not shown): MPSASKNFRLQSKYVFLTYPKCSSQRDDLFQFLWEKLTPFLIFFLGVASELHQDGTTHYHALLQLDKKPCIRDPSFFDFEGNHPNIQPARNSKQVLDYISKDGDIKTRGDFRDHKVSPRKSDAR
# Experimental: as §1
# [5] = tested on: T5, Rep nickase domain of faba bean necrotic yellows virus
# T5 sequence (residues 1-98, tag not shown): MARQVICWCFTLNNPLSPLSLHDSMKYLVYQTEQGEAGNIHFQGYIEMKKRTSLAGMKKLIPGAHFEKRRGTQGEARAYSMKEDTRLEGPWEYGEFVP
# Experimental: as §1
# [6] = tested on: T6, Rep nickase domain of maize striate mosaic virus
# T6 sequence (residues 1-117, tag not shown): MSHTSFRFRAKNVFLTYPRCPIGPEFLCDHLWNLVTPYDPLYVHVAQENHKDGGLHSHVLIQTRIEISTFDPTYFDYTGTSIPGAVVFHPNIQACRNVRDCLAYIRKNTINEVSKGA
# Experimental: as §1
# [7] = tested on: T7, Rep nickase domain of porcine circovirus 2
# T7 sequence (residues 2-116, tag not shown): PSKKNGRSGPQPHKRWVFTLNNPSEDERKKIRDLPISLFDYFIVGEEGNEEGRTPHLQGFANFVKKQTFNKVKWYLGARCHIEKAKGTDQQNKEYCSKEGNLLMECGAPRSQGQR
# Experimental: as §1
# [8] = tested on: T8, Rep nickase domain of tomato yellow leaf curl virus
# T8 sequence (residues 1-136, tag not shown): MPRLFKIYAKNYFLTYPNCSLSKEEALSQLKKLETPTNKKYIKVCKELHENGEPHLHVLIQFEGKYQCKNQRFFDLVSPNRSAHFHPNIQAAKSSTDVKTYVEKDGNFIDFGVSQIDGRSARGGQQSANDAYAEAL
# Experimental: as §1
# [9] = tested on: T9, Rep nickase domain of wheat dwarf virus
# T9 sequence (residues 1-137, tag not shown): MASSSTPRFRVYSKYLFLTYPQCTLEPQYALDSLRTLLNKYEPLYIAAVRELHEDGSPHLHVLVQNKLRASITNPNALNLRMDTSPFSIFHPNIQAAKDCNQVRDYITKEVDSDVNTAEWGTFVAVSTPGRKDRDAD
# Experimental: as §1
Sequence,uncleaved DNA left (log2) [1],uncleaved DNA left (log2) [2],uncleaved DNA left (log2) [3],uncleaved DNA left (log2) [4],uncleaved DNA left (log2) [5],uncleaved DNA left (log2) [6],uncleaved DNA left (log2) [7],uncleaved DNA left (log2) [8],uncleaved DNA left (log2) [9]
ATAGACG,0.0555,0.109,-0.661,-0.533,0.0296,-1.19,0.192,0.0861,-0.0595
GCCGACG,-0.0482,-0.0876,-0.231,0.0914,0.102,-0.304,0.154,-0.114,-0.113
CCCTAGG,0.128,0.235,0.636,1.2,0.23,1.12,0.0873,0.125,0.233
TGGACGA,0.0148,0.00483,0.661,1.75,-0.0983,1.86,0.104,-0.00979,0.0869
CGCCGGT,0.0287,-0.00717,0.281,0.352,0.103,0.499,0.168,0.0534,-0.0242
TAGGTTC,-0.00755,-0.0567,0.226,-0.0184,-0.0799,1.01,-0.0711,-0.0144,0.0543
TGATGCT,-2.32,0.0397,-0.735,-2.2,0.0376,-1.22,-2.28,0.0034,-0.13
CGAACCC,-0.128,-0.146,-0.00381,-0.365,-0.0959,-0.231,-0.551,-0.0909,0.0598
AAAAGCT,-0.0375,-0.0492,-0.86,-1.81,-0.0394,-0.306,-0.0553,-0.0213,-0.117
AGAGAAA,0.0526,-0.0991,0.124,0.526,-0.0186,0.324,-0.139,-0.0868,-0.0619
GTGATTA,-0.008,-0.0156,0.288,0.843,0.0372,1.82,0.0446,-0.0188,0.117
CGTGTTG,-0.0682,-0.0337,-0.275,-0.232,-0.113,-0.508,0.102,-0.0712,-0.187
CCTTTTA,0.0892,0.0978,0.0702,-1.75,0.0492,-0.636,-0.131,-0.0889,-0.127
GTCATAC,-0.0556,-0.0857,0.211,0.734,-0.113,1.46,-0.116,-0.0343,-0.0661
TGATTAC,0.07,0.00585,0.192,-1.06,0.0116,0.401,-0.0188,0.0245,0.00294
TACCGGC,0.246,0.141,0.204,0.0926,0.261,-0.335,0.0996,0.185,0.0756
TTACGGT,0.103,0.0717,0.388,-0.18,0.0177,1.42,-0.029,0.014,-0.0269
CAGGATT,-0.143,-0.12,0.179,1.25,-0.0279,1.63,-0.404,-0.13,-0.0442
TTCCAGG,-0.109,-0.124,0.286,1.25,-0.262,1.69,-0.115,-0.18,-0.0312
CAGGCAC,0.0505,0.0573,-0.0488,0.17,-0.126,-0.282,0.0611,-0.00992,-0.00223

Sequence,uncleaved DNA left (log2) [1],uncleaved DNA left (log2) [2],uncleaved DNA left (log2) [3],uncleaved DNA left (log2) [4],uncleaved DNA left (log2) [5],uncleaved DNA left (log2) [6],uncleaved DNA left (log2) [7],uncleaved DNA left (log2) [8],uncleaved DNA left (log2) [9]
AGAATGC,-0.0175,-0.043,-0.568,-0.497,-0.112,-1.08,0.0947,0.0497,0.00572
TACTGAT,-2.49,-0.588,-1.49,-1.8,0.13,0.875,-3.62,-0.138,-0.0493
ACGGGTA,-0.0282,0.0691,0.112,-0.209,0.0989,0.288,-0.033,-0.0341,0.037
AGAAGTG,0.242,0.12,-0.195,-0.227,0.00466,-0.608,0.212,0.0447,0.149
TTGTTCG,0.0342,-0.106,-0.816,0.0441,0.0901,-1.02,0.196,-0.0576,-0.173
ACCGCCC,0.00405,-0.0512,-0.115,-0.187,-0.0615,-0.572,-0.0451,-0.174,-0.224
AGATCCC,0.0137,0.126,0.591,1.48,0.0932,2.08,0.0415,0.0963,0.149
GCTTAAT,-0.804,0.0124,0.0943,0.155,-0.0259,0.496,-2.48,-0.0244,0.0183
AATTTGA,-0.17,-0.0375,-0.183,-0.596,-0.0115,-1.22,-0.28,-0.0894,-0.0353
CAGGCAT,0.0261,0.195,0.321,1.51,0.0495,1.78,0.0665,-0.00731,0.137
CCGTTCT,-1,-0.145,0.00716,-1.63,-0.054,-0.539,-2.65,0.0756,-0.259
TGCGAGA,0.0539,-0.000416,0.439,0.67,-0.00185,0.394,0.0168,0.103,0.141
TCAGTTC,-0.104,0.0163,0.0848,-1.01,0.00671,-0.46,-0.0508,0.0572,-0.107
GCTCCAT,0.108,0.107,0.344,0.584,0.138,0.826,0.17,0.255,0.243
CATGTCG,-0.0069,-0.15,-0.659,0.411,-0.0654,-0.653,0.0886,0.0463,-0.181
AAGGATG,-0.0237,-0.0528,0.207,0.777,0.057,0.243,0.0707,-0.0709,0.0649
CGCCCGC,-0.0291,-0.0354,-0.0714,-0.14,0.032,-0.259,0.154,-0.00316,-0.0253
AATATTG,0.106,-0.0549,-0.277,-0.468,0.0806,-0.889,0.156,0.0422,0.0337
ATCACGC,0.0218,0.0169,-0.195,-0.503,0.127,-0.919,0.186,-0.105,-0.118
TCTCTTA,0.0132,-0.0494,0.198,-0.957,0.0333,-0.283,-0.0412,0.0624,0.0198
